# Data published in the supplement of paper PMC4166925.
# ± gives the standard deviation of the averaged measurements. The full ranking holds about 33,000 sequences; the median of “E-score (dimensionless, -0.5 to 0.5)” is about -0.049, and the highest 2% start at about 0.37. Some of the results follow.
# System: T1, PmTbr T-box DNA-binding domain (GST fusion)
# T1 sequence: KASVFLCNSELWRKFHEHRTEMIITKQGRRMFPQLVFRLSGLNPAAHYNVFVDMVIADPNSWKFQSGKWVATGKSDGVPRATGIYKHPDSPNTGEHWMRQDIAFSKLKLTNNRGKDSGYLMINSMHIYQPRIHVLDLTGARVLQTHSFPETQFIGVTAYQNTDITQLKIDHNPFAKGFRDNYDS
# Test: PBM E-score of 8-mer (E-score (dimensionless, -0.5 to 0.5)); Tbr is Tbrain of the sea star Patiria miniata (Pm) or the sea urchin Strongylocentrotus purpuratus (Sp); higher = stronger binding preference; most listed sequences are background and not binding sites
# Details: the construct has about 5 more residues each side
# Outline: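 Expression of GST-fused Tbr T-box DNA-binding domains, each holding the full T-box plus roughly five flanking residues, was carried out in BL21 E. coli at 20 °C, with purification by glutathione affinity chromatography. Universal Agilent arrays made double-stranded by primer extension were incubated with the protein at 200 nM in PBS (pH 7.5), then scanned and quantified. All ungapped 8-mers were scored from probe intensities, and each received an enrichment E-score from the Universal PBM Analysis Suite, averaged over duplicate arrays.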
row,Sequence,PBM E-score of 8-mer
1,CATGCGGA,-0.111 ± 0.045
2,CCAGGATA,-0.172 ± 0.039
3,AGTGCACC,-0.108 ± 0.086
4,ACACACAG,0.2395 ± 0.0016
5,GTCTACTA,-0.136 ± 0.019
6,ACAACGGC,0.126 ± 0.018
7,ATGATGAG,-0.246 ± 0.02
8,CGCACCCA,0.326 ± 0.04
9,CAGCACGC,0.143 ± 0.092
10,ACCCTCGC,0.119 ± 0.028
11,CATGAGAG,-0.0683 ± 0.043
12,ATACAATA,-0.204 ± 0.073
13,GTGGATCA,-0.0755 ± 0.025
14,AGGCGTTG,0.369 ± 0.0053
15,CTGATGAC,0.149 ± 0.0035
16,ACCAATCT,-0.135 ± 0.066
17,GCGGATGA,-0.0593 ± 0.026
18,AAGCAACT,-0.123 ± 0.016
19,CTATCGCC,0.261 ± 0.037
20,AACCTCCC,-0.0756 ± 0.12
21,CGGTGATA,0.187 ± 0.0068
22,GGAATTTA,-0.0365 ± 0.0034

row,Sequence,PBM E-score of 8-mer
1,CAGATTCC,-0.0266 ± 0.064
2,CGCTAATC,0.107 ± 0.016
3,CCGTTAGC,0.27 ± 0.018
4,AAAAAACG,0.0611 ± 0.07
5,AAATCGTG,0.21 ± 0.036
6,TACCGCGA,0.0973 ± 0.005
7,GTGAAAGA,0.27 ± 0.031
8,CTGACCTC,-0.099 ± 0.0038
9,AGTAGTTG,0.0125 ± 0.064
10,CACCTCAC,0.4504 ± 0.0025
11,ATCAGAAG,-0.0178 ± 0.033
12,AGGCAGCG,-0.0107 ± 0.078
13,GCCGGACC,-0.209 ± 0.099
14,CTTGTATC,-0.0802 ± 0.031
15,TGAGTGAA,-0.029 ± 0.0024
16,GATGTCCA,-0.225 ± 0.0019
17,CAAGGAAG,-0.256 ± 0.043
18,GAGATACC,-0.0262 ± 0.061
19,GTAGGGCA,-0.299 ± 0.015
20,ATCCCTTG,-0.0587 ± 0.13
21,AATCACCC,0.193 ± 0.0068
22,GCTGTAAC,-0.0752 ± 0.0097

row,Sequence,PBM E-score of 8-mer
1,AGAGGGGC,-0.308 ± 0.083
2,AAAGATAC,-0.194 ± 0.03
3,ACCGCCTC,-0.0415 ± 0.022
4,AAGGTCGC,0.182 ± 0.048
5,ACAGATCT,-0.066 ± 0.012
6,CTATTCAG,-0.0996 ± 0.0059
7,AAGGCAAC,0.0723 ± 0.07
8,ACGGGACA,0.046 ± 0.0098
9,CAGATTTA,-0.154 ± 0.024
10,AAGATCCT,-0.242 ± 0.024
11,GCCCAAGA,-0.228 ± 0.1
12,AATTGAGG,-0.164 ± 0.043
13,ATATATCA,-0.0331 ± 0.07
14,ACCAAACT,-0.11 ± 0.026
15,ACCATGAA,-0.0721 ± 0.014
16,GTGCATAA,-0.0546 ± 0.0058
17,GTGGTCCA,-0.254 ± 0.0079
18,CGGGCGCC,-0.106 ± 0.1
19,ATGCCAGA,-0.187 ± 0.033
20,AGTTGGCC,-0.152 ± 0.061
21,GCTTCCAC,0.109 ± 0.064
22,CATTCAAC,-0.255 ± 0.034

row,Sequence,PBM E-score of 8-mer
1,ATTAGATG,-0.137 ± 0.032
2,TTAAAGAA,-0.0984 ± 0.037
3,TAAGGGAA,-0.33 ± 0.043
4,CATCCGGC,-0.0338 ± 0.017
5,CCTCGGCC,-0.195 ± 0.031
6,ACACCCAC,0.361 ± 0.029
7,CGTTATAC,-0.0513 ± 0.051
8,AGTAACTA,-0.0819 ± 0.012
9,CAAATAAG,0.00592 ± 0.002
10,CTTAGTCC,-0.158 ± 0.069
11,TCACTAGA,0.0954 ± 0.0055
12,CGTGTGGA,0.284 ± 0.0037
13,TACCGCTA,0.0729 ± 0.087
14,TAGCCGAA,-0.0938 ± 0.015
15,AGAACCGC,0.0263 ± 0.067
16,AGACACTC,0.0979 ± 0.086
17,CAGTAATG,0.0609 ± 0.00072
18,GTCGCCGA,-0.0405 ± 0.038
19,AACCCGTC,0.125 ± 0.0017
20,GCAGTAAC,0.0357 ± 0.011
